The whole screen tested about 310,000 compounds, of which about 2,200 (0.71%) showed an effect of 50% or more. The effect is printed as a negative number. The list shows a part of the results.
Biological target: human ether-à-go-go-related gene (hERG) potassium channel (human, UniProt Q12809)
Assay: primary screen, population patch clamp on CHO cells stably expressing hERG

human ether-à-go-go-related gene (hERG) potassium channel, sequence (Q12809 whole entry, looked up): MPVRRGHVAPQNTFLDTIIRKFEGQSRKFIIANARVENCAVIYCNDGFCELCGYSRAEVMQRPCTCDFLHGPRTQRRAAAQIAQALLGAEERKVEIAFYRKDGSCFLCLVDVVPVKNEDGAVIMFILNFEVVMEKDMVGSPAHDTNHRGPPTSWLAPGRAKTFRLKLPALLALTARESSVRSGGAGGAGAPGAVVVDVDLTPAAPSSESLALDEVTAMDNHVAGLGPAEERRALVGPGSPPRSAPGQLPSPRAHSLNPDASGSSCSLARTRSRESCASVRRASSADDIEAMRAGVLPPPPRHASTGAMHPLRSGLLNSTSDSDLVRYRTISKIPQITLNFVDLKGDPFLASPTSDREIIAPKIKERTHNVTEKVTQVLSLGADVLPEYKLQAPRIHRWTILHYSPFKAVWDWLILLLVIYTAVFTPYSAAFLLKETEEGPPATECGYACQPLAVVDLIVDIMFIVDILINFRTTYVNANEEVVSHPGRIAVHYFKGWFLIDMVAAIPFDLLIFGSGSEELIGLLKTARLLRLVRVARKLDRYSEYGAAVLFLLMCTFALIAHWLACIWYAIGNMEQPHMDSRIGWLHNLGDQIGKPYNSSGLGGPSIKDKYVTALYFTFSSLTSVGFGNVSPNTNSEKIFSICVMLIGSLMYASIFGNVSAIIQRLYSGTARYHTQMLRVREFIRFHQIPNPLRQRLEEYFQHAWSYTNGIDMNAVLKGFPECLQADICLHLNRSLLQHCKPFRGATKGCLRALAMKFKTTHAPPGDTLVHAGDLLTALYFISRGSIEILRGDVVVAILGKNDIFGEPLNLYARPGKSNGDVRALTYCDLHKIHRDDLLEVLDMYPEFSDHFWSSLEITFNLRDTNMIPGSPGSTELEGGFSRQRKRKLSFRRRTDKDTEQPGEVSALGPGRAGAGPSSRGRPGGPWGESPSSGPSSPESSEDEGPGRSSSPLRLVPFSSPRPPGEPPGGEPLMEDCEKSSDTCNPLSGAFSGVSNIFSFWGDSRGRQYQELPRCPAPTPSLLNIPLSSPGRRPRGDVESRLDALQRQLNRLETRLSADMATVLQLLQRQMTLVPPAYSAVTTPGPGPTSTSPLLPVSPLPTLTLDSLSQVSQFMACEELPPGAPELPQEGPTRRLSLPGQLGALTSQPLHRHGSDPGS

**Q.** How did the “hERG current change (%, negative = inhibition) at 1uM” value turn out when `O=C(O)Cc1c(-c2ccccc2)c2cc(Br)ccc2[nH]c1=O` was run?
**A.** Its value is 10.3%.

**Q.** How did the “hERG current change (%, negative = inhibition) at 1uM” value turn out when `Fc1cccc(Cl)c1/C=N/n1c(-c2cccnc2)n[nH]c1=S` was run?
**A.** The value was 5.58%.

**Q.** Which “hERG current change (%, negative = inhibition) at 1uM” value does the source give for `CC(C)(C)c1ccc(Cn2c(=N)n(CC(O)c3ccco3)c3ccccc32)cc1.Cl` (centres unmarked) here?
**A.** The value was -7.74%.

**Q.** `O=C(O)c1ccccc1SCC(=O)N1CCOCC1` was tested. Which “hERG current change (%, negative = inhibition) at 1uM” value did it give?
**A.** Its value is 11.3%.

**Q.** How did the “hERG current change (%, negative = inhibition) at 1uM” value turn out when `CCOC(=O)CNC(=O)c1cc(OC)cc(OC)c1` was run?
**A.** The value was 16.1%.

**Q.** `Clc1ccc2c(c1)C1=C(C(c3ccncc3)O2)C(c2ccc(Br)cc2)n2ncnc2N1` (centres unmarked) was tested. Which “hERG current change (%, negative = inhibition) at 1uM” value did it give?
**A.** Its value is 13.3%.

**Q.** For `Cc1cc(C)c[n+](-c2nc3ccccc3nc2[N-]S(=O)(=O)c2ccc(Cl)cc2)c1`, which “hERG current change (%, negative = inhibition) at 1uM” value is on record?
**A.** The value was 7.19%.

**Q.** With `COC(=O)C1=C(C)N(CC2CC2)C(=NCc2cc(OC)c(OC)c(OC)c2)N[C@H]1c1ccccc1` as the molecule, how does the “hERG current change (%, negative = inhibition) at 1uM” value read?
**A.** The value was 7.25%.

**Q.** How did the “hERG current change (%, negative = inhibition) at 1uM” value turn out when `N#CCSc1nc2[nH]ncc2c(=O)n1-c1ccccc1Br` was run?
**A.** The value was -0.962%.

**Q.** How did the “hERG current change (%, negative = inhibition) at 1uM” value turn out when `CN(C1=C(NC(=O)c2ccc(Cl)cc2)C(=O)c2ccccc2C1=O)c1ccccc1` was run?
**A.** The value was 8.8%.

**Q.** Which “hERG current change (%, negative = inhibition) at 1uM” value does the source give for `Cc1nc2nc(N)nn2c(C)c1C/C=C/c1ccccc1` here?
**A.** The value was 2.83%.

**Q.** `O=C(CCNS(=O)(=O)c1ccc(Br)s1)NCc1ccc2c(c1)OCO2` was tested. Which “hERG current change (%, negative = inhibition) at 1uM” value did it give?
**A.** Its value is 5.23%.

**Q.** For `O=C(N1CCCCCC1)N1CCN(S(=O)(=O)c2cccc([N+](=O)[O-])c2)CC1`, which “hERG current change (%, negative = inhibition) at 1uM” value is on record?
**A.** Its value is -14.8%.

**Q.** For `CN1CCc2c(sc(NC(=O)c3ccc(S(=O)(=O)N4CCCCCC4)cc3)c2C(N)=O)C1`, which “hERG current change (%, negative = inhibition) at 1uM” value is on record?
**A.** The value was 19.1%.

**Q.** With `COC(=O)c1ccc(Cn2cnc3c(cnn3-c3ccc(Cl)cc3)c2=O)o1` as the molecule, how does the “hERG current change (%, negative = inhibition) at 1uM” value read?
**A.** The value was 9.26%.

**Q.** For `COc1ccccc1CNC(=O)c1n[nH]c2ccccc12`, which “hERG current change (%, negative = inhibition) at 1uM” value is on record?
**A.** The value was 10.8%.

**Q.** Which “hERG current change (%, negative = inhibition) at 1uM” value does the source give for `COc1cccc(CNC(=O)CN2C(=O)CSc3ccc(S(=O)(=O)N4CCOCC4)cc32)c1` here?
**A.** The value was 17.5%.

**Q.** For `CN(C)CCCn1c2c(c(SCC(=O)Nc3ccc4c(c3)OCO4)nc1=O)CCCC2`, which “hERG current change (%, negative = inhibition) at 1uM” value is on record?
**A.** Its value is -4.13%.

**Q.** `O=C(Oc1ccccc1N1CCOCC1)c1ccccc1` was tested. Which “hERG current change (%, negative = inhibition) at 1uM” value did it give?
**A.** The value was 9.43%.

**Q.** `O=C(CN1C(=O)CCSc2ccccc21)Nc1ccc2c(c1)OCO2` was tested. Which “hERG current change (%, negative = inhibition) at 1uM” value did it give?
**A.** The value was -4.53%.

**Q.** Which “hERG current change (%, negative = inhibition) at 1uM” value does the source give for `CO/N=C\c1cc(C(=O)c2ccc(Cl)cc2Cl)cn1C` here?
**A.** Its value is 11.4%.

**Q.** For `CCc1ccc(OCC(=O)N2CCN(c3ccccn3)CC2)c(Br)c1`, which “hERG current change (%, negative = inhibition) at 1uM” value is on record?
**A.** The value was 11.2%.

**Q.** Which “hERG current change (%, negative = inhibition) at 1uM” value does the source give for `CCOC(=O)C1CCC(CNCc2ccc(Cl)cc2)CC1` (centres unmarked) here?
**A.** The value was -19.8%.

**Q.** With `CS(=O)(=O)c1ncc(Cl)c(C(=O)Nc2ccc(N3CCOCC3)cc2)n1` as the molecule, how does the “hERG current change (%, negative = inhibition) at 1uM” value read?
**A.** The value was 12.5%.

**Q.** For `CCN(CC)CC(=O)Nc1sc(C)c(C)c1C(=O)c1ccc(C)cc1`, which “hERG current change (%, negative = inhibition) at 1uM” value is on record?
**A.** The value was 0.368%.

**Q.** With `CCOc1ccc(N2CC(O)(c3cccs3)[N+]3=C2CCCC3)cc1.[Br-]` (centres unmarked) as the molecule, how does the “hERG current change (%, negative = inhibition) at 1uM” value read?
**A.** Its value is -32.5%.

**Q.** `Cc1cc(Nc2ccccc2)nn1C(=O)c1ccc(Cl)cc1` was tested. Which “hERG current change (%, negative = inhibition) at 1uM” value did it give?
**A.** Its value is 16%.

**Q.** Which “hERG current change (%, negative = inhibition) at 1uM” value does the source give for `CC(Oc1ccccc1)C(=O)N=Nc1c(O)[nH]c2ccc([N+](=O)[O-])cc12` (centres unmarked) here?
**A.** Its value is 8.53%.

**Q.** Which “hERG current change (%, negative = inhibition) at 1uM” value does the source give for `COc1ccccc1N(CC(=O)NC(C)C)S(=O)(=O)c1cccs1` here?
**A.** The value was 13.8%.

**Q.** `CCN1CC2CCCC3(C1)C(=O)NC1(CCCCC1)N=C23` (centres unmarked) was tested. Which “hERG current change (%, negative = inhibition) at 1uM” value did it give?
**A.** The value was 9.14%.

**Q.** How did the “hERG current change (%, negative = inhibition) at 1uM” value turn out when `CC(C)Oc1ccc(C(=O)NC(Cc2c[nH]c3ccccc23)C(=O)NN)cc1` (centres unmarked) was run?
**A.** Its value is 11.3%.

**Q.** With `CC(C)(C)N/C=C(\C#N)S(=O)(=O)c1ccc(Br)cc1` as the molecule, how does the “hERG current change (%, negative = inhibition) at 1uM” value read?
**A.** The value was 2.97%.

**Q.** With `Cc1cc(C)c(C)c(S(=O)(=O)Nc2ccc(OCC(=O)O)cc2)c1C` as the molecule, how does the “hERG current change (%, negative = inhibition) at 1uM” value read?
**A.** The value was 4.35%.

**Q.** `CCCOc1ccc(C(=O)NCCC(=O)NCCCC(=O)O)cc1` was tested. Which “hERG current change (%, negative = inhibition) at 1uM” value did it give?
**A.** The value was 10.7%.

**Q.** Which “hERG current change (%, negative = inhibition) at 1uM” value does the source give for `CCC1=C(OC(=O)N(CC)CC)N2C(=O)OC(=NCc3ccccc3)[C@]2(C)[C@H]2C1=CC[C@H]1C(=O)N(CC)C(=O)[C@H]12` here?
**A.** Its value is 12.3%.

**Q.** Which “hERG current change (%, negative = inhibition) at 1uM” value does the source give for `COc1ccc(-c2noc(CNC(=O)c3ccoc3C)n2)cc1` here?
**A.** Its value is 5.41%.

**Q.** For `CCn1c(=S)sc2c(=O)n(CC(=O)Nc3ccc(C(C)=O)cc3)c(C)nc21`, which “hERG current change (%, negative = inhibition) at 1uM” value is on record?
**A.** The value was 11.9%.

**Q.** `CCn1cc(/C=N\NC(=O)c2ccc(F)cc2)cn1` was tested. Which “hERG current change (%, negative = inhibition) at 1uM” value did it give?
**A.** The value was 8.32%.

**Q.** With `CCOC(=O)c1ccc(Oc2nc(NC(C)(C)C)nc(N(C)C)n2)cc1` as the molecule, how does the “hERG current change (%, negative = inhibition) at 1uM” value read?
**A.** The value was 6.02%.

**Q.** For `O=C1C2CCCN2C(c2ccccc2)N1c1ccc(Cl)cc1` (centres unmarked), which “hERG current change (%, negative = inhibition) at 1uM” value is on record?
**A.** Its value is 13.7%.

**Q.** How did the “hERG current change (%, negative = inhibition) at 1uM” value turn out when `Cc1ccc(-c2noc(/C=C/c3ccccc3)n2)cc1` was run?
**A.** Its value is 8.71%.

**Q.** Which “hERG current change (%, negative = inhibition) at 1uM” value does the source give for `O=C(Nc1cccnc1)c1sc(Nc2ccccc2F)nc1-c1ccccc1` here?
**A.** The value was 17.9%.

**Q.** With `CC(C)(O)[C@H](O)COc1c2ccoc2cc2oc(=O)ccc12` as the molecule, how does the “hERG current change (%, negative = inhibition) at 1uM” value read?
**A.** Its value is 14.5%.

**Q.** `CC(=O)N1CSCC1C(=O)O` (centres unmarked) was tested. Which “hERG current change (%, negative = inhibition) at 1uM” value did it give?
**A.** The value was 18.3%.

**Q.** How did the “hERG current change (%, negative = inhibition) at 1uM” value turn out when `COc1ccc(-c2c3c(nc4sc5c(Cl)nc(C)nc5c24)CCC3)cc1` was run?
**A.** The value was 10.3%.

**Q.** Which “hERG current change (%, negative = inhibition) at 1uM” value does the source give for `CSc1nnc(-c2sccc2-n2cccc2)o1` here?
**A.** Its value is 20%.

**Q.** `O=C1C(=O)N(C2CCS(=O)(=O)C2)C(c2cccc(O)c2)/C1=C(/O)c1ccc(Cl)cc1` (centres unmarked) was tested. Which “hERG current change (%, negative = inhibition) at 1uM” value did it give?
**A.** The value was 13.1%.

**Q.** Which “hERG current change (%, negative = inhibition) at 1uM” value does the source give for `O=C(OC(C(=O)NC1CCCCC1)c1ccccc1)c1ccco1` (centres unmarked) here?
**A.** The value was 5.19%.

**Q.** How did the “hERG current change (%, negative = inhibition) at 1uM” value turn out when `O=C(NCc1cccc(Cl)c1)c1cc(=O)[nH]c2ccccc12` was run?
**A.** Its value is 11.9%.

**Q.** How did the “hERG current change (%, negative = inhibition) at 1uM” value turn out when `O=C(Nc1c[nH]c(=O)[nH]c1=O)c1cc([N+](=O)[O-])cc([N+](=O)[O-])c1` was run?
**A.** The value was 20.4%.

**Q.** How did the “hERG current change (%, negative = inhibition) at 1uM” value turn out when `N#Cc1ccccc1NC(=O)Nc1ccccc1` was run?
**A.** The value was 2.39%.

**Q.** For `COc1ccc(-c2nnc(SCc3nc4ccccc4c(=O)[nH]3)o2)cc1`, which “hERG current change (%, negative = inhibition) at 1uM” value is on record?
**A.** Its value is 8.85%.

**Q.** For `Nc1nc(Nc2ccccc2)nc(N2CCOCC2)c1[N+](=O)[O-]`, which “hERG current change (%, negative = inhibition) at 1uM” value is on record?
**A.** Its value is 1.02%.

**Q.** For `COc1ccc(NC(=O)CN(C2CCCCC2)S(C)(=O)=O)cc1Cl`, which “hERG current change (%, negative = inhibition) at 1uM” value is on record?
**A.** The value was -1.74%.

**Q.** Which “hERG current change (%, negative = inhibition) at 1uM” value does the source give for `CC(C(=O)OCC(=O)c1cccc([N+](=O)[O-])c1)N1C(=O)C2C3CCC(C3)C2C1=O` (centres unmarked) here?
**A.** The value was 11.7%.

**Q.** `CCOC(=O)c1c(C)oc2c1C(=O)c1ccccc1C2=O` was tested. Which “hERG current change (%, negative = inhibition) at 1uM” value did it give?
**A.** The value was 6.86%.

From article PMC4336329 (PLoS ONE, 2015)
